In PubChem BioAssay AID686971 (National Center for Advancing Translational Sciences (NCATS), 2013):
The whole screen tested about 360,000 compounds, of which about 7,500 (2.1%) were called active. Inconclusive results, whose numbers are uncertain, are shown with a selection of clear calls. Calls follow the shape of the dose curve; as a rule, active = well fitted cell-killing curve with a large enough effect; inconclusive = small, poorly fitted or top-dose-only effect, or effect the other way, or another doubt; inactive = no such curve, though single readings can be large or run the other way. No potency is given beside an inconclusive call; the fits are too rough.

test: qHTS for induction of synthetic lethality in tumor cells producing 2HG: qHTS for the HT-1080-IDH1KD cell line; conditions: HT-1080 IDH1 knockdown viability, ATP luminescence, 48 h; activity, negative = toxicity: at 46.1 µM (top of the series) unless noted;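 as to activity, negative = toxicity: 0% = DMSO wells and -100% = cell-free medium wells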
Procedure, shortened: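 % activity derives from luminescence (CellTiter-Glo), normalised to DMSO and no-cell wells. HT-1080-IDH1KD cells, 750/well, had 48 h compound exposure at 37 °C.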
Potency is read from the fitted curve at half-maximal effect; tags tell the direction and shape of the fitted curve.

| SMILES | Potency | activity, negative = toxicity |
| --- | --- | --- |
| CC(Nc1nc(N2CCN(CCO)CC2)nc2ccccc12)c1ccccc1 (stereo unspecified) | inconclusive [cytotoxic, single point] | – |
| CCOc1ccccc1N1CC(O)=C(c2nc3ccccc3s2)C1=N | active: 2.82 µM | – |
| CN1CCN(C(=O)CCCN2C(=O)/C(=C/c3cccc(Br)c3)SC2=S)CC1 | active: 18.4 µM | – |
| N/C(=N\OC(=O)c1cccc2ccccc12)c1cccc([N+](=O)[O-])c1 | inconclusive [cytotoxic, single point] | – |
| CCOC(=O)C1=NNC2(c3ccc(C)cc3)C(=O)N(c3ccc(Cl)cc3)C(=O)C12 (stereo unspecified) | – | inactive: 20.7% |
| Nc1nonc1C(=O)NCCNCc1c(OCc2ccccc2F)ccc2ccccc12 | active: 10 µM | – |
| NC(=O)N1CCN(CCCN2c3ccccc3Sc3cc(Cl)ccc32)CC1 | inconclusive [cytotoxic, partial curve] | – |
| CC(C)c1ccc(-c2nnc(N)s2)cc1 | inconclusive [cytotoxic, single point] | – |
| CC1=C(C(=O)Nc2cccc(C(=O)NCc3ccc(F)cc3)c2)SCCO1 | inconclusive [cytotoxic, partial curve] | – |
| COc1ccc(C2/C(=C(\O)c3cccc(OC)c3)C(=O)C(=O)N2c2ccccn2)cc1 (stereo unspecified) | inconclusive [cytotoxic, single point] | – |
| CN(C)c1ccc(/C=C/c2cc[n+](C)cc2)cc1 | inconclusive [cytotoxic, full curve] | – |
| COc1ccc(-c2nc3ccc(C)cn3c2CC(C)(C)C)cc1OC | inconclusive [cytotoxic, single point] | – |
| O=C(O)C(CO)N=Cc1c(O)c2ccccc2oc1=O (stereo unspecified) | inconclusive [cytotoxic, single point] | – |
| Cc1ncsc1C(=O)N1N=C2/C(=C/c3ccccc3)CCCC2C1c1ccccc1 (stereo unspecified) | – | inactive: -16% |
| COc1ccc(-c2csc(NC(=O)CN3C(=O)C4CCCCC4C3=O)n2)c(OC)c1 (stereo unspecified) | inconclusive [cytotoxic, single point] | – |
| Cc1cc(C)cc(NS(=O)(=O)c2ccc(NC(=S)NC(=O)c3cccs3)cc2)c1 | inconclusive [cytotoxic, single point] | – |
| CCCCNC(=O)C1(C)CCCCN1C(=O)c1ccc2sccc2c1 (stereo unspecified) | – | inactive: 9.87% |
| c1csc(C(c2nnnn2C2CCCC2)N2CCCC3(CCCCC3)C2)c1 (stereo unspecified) | inconclusive [cytotoxic, single point] | – |
| C/C(=N\NC(=O)CNC(=O)C(c1ccccc1)c1ccccc1)c1ccc(C(C)(C)C)cc1 | inconclusive [cytotoxic, single point] | – |
| CC1(C)N=C(N)N=C(N)N1c1cccc(CN)c1 | inconclusive [cytotoxic, partial curve] | – |
| Cc1csc2c(N3CCN(C(=O)Nc4ccc(OC(F)(F)F)cc4)CC3)ncnc12 | inconclusive [cytotoxic, single point] | – |
| Cc1nc2c(OCc3cccc(Cl)c3)cccn2c1N(C)CC1CC1 | inconclusive [cytotoxic, single point] | – |
| COc1ccc(N2CCN(C(=O)CSc3ccc(C)cc3)CC2)cc1 | – | inactive: 10.6% |

| SMILES | Potency | activity, negative = toxicity |
| --- | --- | --- |
| CCCCCCSc1cc(-c2nc3cc(C)ccn3c2NCCCC)ccc1OC | active: 23.1 µM | – |
| O=C(C=Cc1ccccn1)c1ccccc1 | active: 10.3 µM | – |
| CCn1c(=O)c(=O)[nH]c2cc(C(=O)NC3CCCc4ccccc43)ccc21 (stereo unspecified) | inconclusive [cytotoxic, single point] | – |
| COc1ccc(N(CC(=O)Nc2cc(Cl)ccc2C)S(=O)(=O)c2c(C)noc2C)cc1 | inconclusive [cytotoxic, full curve] | – |
| N#Cc1nccnc1S(=O)(=O)c1cccs1 | inconclusive [cytotoxic, partial curve] | – |
| O=C(C[n+]1cc2ccccc2c2ccccc21)c1ccccc1 | inconclusive [cytotoxic, partial curve, poor fit] | – |
| Cc1cc(C(=O)CSc2n[nH]c(N)n2)c(C)n1-c1ccccc1 | – | inconclusive: -36.6% [cytotoxic] |
| CCCCCCCCn1cnc2c(N)c(C)c(C)cc21 | inconclusive [cytotoxic, single point] | – |
| O=C(CSc1nc(=O)n(CCCN2CCOCC2)c2c1CCCC2)Nc1ccc(Cl)cc1 | – | inactive: -22.1% |
| O=C(c1ccco1)N1CCN(CC(O)COc2ccc3oc4ccccc4c3c2)CC1 (stereo unspecified) | inconclusive [cytotoxic, single point] | – |
| CCOc1ccc(CCNC(=O)CSc2nn(-c3ccc(C)c(Cl)c3)c(=S)s2)cc1OCC | – | inactive: 13.1% |
| O=C(O)[C@]1(S(=O)(=O)c2ccccc2)C[C@@H]2ON=C(c3cccc(Br)c3)[C@@H]2C1 | – | inactive: 1.52% |
| O=c1[nH]c(C(F)(F)F)nc2ccc3ccccc3c12 | inconclusive [cytotoxic, partial curve] | – |
| Cc1nn(Cc2ccc(Cl)cc2Cl)c(C)c1NC(=O)c1sc2ccccc2c1Cl | – | inactive: 9.74% |
| CCc1sc(C(=O)Nc2ncccc2C)cc1C | – | inactive: 3.62% |
| Cc1ccc(C(=O)N/C(=C/c2ccc(Cl)cc2)C(=O)NCC2CCCO2)cc1 (stereo unspecified) | – | inactive: 15.6% |
| C=CCN(CC=C)CC(O)Cn1c2ccccc2c2ccccc21 (stereo unspecified) | inconclusive [cytotoxic, single point] | – |
| CCCCN1CCc2c(c3ccccc3n2Cc2ccccc2)C1 | inconclusive [cytotoxic, single point] | – |
| O=[N+]([O-])c1cccc(-c2ccc(/C=N/NC(=S)NCc3ccco3)o2)c1 | inconclusive [cytotoxic, partial curve] | – |
| COc1ccc(-c2ccc(C(=O)NCc3ccc(N4CCN(C)CC4)cc3)c3occc23)c(C)c1 | inconclusive [cytotoxic, single point] | – |
| CCCN1Cc2cccc(C(=O)NC(CC(=O)OCC)c3ccc(C)cc3)c2C1=O (stereo unspecified) | – | inactive: 14.4% |
| COc1ccccc1CNc1nc(NCc2ccccc2SC)c2sccc2n1 | active: 18.4 µM | – |
| COCCNC(=S)N1C2CCC1CC(NC(=O)NC13CC4CC(CC(C4)C1)C3)C2 (stereo unspecified) | inconclusive [cytotoxic, partial curve] | – |
